B1: PhoQ; a variant is named by its letters at X, in order, P23837 (parent)
chain: MKKLLRLFFPLSLRVRFLLATAAVVLVLSLAYGMVALIGYSVSFDKTTFRLLRGESNLFYTLAKWENNKLHVELPENIDKQSPTMTLIYDENGQLLWAQRDVPWLMKMIQPDWLKSNGFHEIEADVNDTSLLLSGDHSIQQQLQEVREDDDDAEMTHSVAVNVYPATSRMPKLTIVVVDTIPVELKSSYMVWSWFIYVLSANLLLVIPLLWVAAWWSLRPIEALAKEVRELEEHNRELLNPATTRELTSLVRNLNRLLKSERERYDKYRTTLTDLTHSLKTPLXXLQXXLRSLRSEKMSVSDAEPVMLEQISRISQQIGYYLHRASMRGGTLLSRELHPVAPLLDNLTSALNKVYQRKGVNISLDISPEISFVGEQNDFVEVMGNVLDNACKYCLEFVEISARQTDEHLYIVVEDDGPGIPLSKREVIFDRGQRVDTLRPGQGVGLAVAREITEQYEGKIVAGESMLGGARMEVIFGRQHSAPKDE

The list shows a part of the results. Some results are limits rather than exact numbers.

This test covers variants of B1. Briefly: enrichment ratio after two sorts for PhoP signalling (ratio (wild type AVST 3.29)); higher = more functional. To be noted: with PhoP (E. coli).
Regarding KRET, the enrichment ratio was not above 0.25.

As to HKWY, the enrichment ratio is not above 0.25. For NRYA the value was not above 0.25. The value for VPWI was not above 0.25. Consider WKPS, for which the enrichment ratio was not above 0.25. The value for KNWG was not above 0.25.

Take EQLW: the enrichment ratio was not above 0.25. For DWFY, the enrichment ratio was not above 0.25. On to MRAV, for which the enrichment ratio is not above 0.25. As for SETA, the enrichment ratio amounted to 10.5. For KAST the value was not above 0.25; for ETEF, not above 0.25; for DSKH, not above 0.25. The value for PQCP was not above 0.25; that for EQGK was not above 0.25. For the variant IMDA, the enrichment ratio is not above 0.25. On to QKVK, for which the enrichment ratio was not above 0.25. For RMCR the value was not above 0.25. Regarding SRKQ, the enrichment ratio is not above 0.25. Take RSIG: the enrichment ratio was not above 0.25. With TEDW, the enrichment ratio was not above 0.25. Take SNRW: the enrichment ratio is not above 0.25.

Take NDAH: the enrichment ratio was not above 0.25. In the case of QWTP, the enrichment ratio was not above 0.25. For LFME the value was not above 0.25; for RQPC, not above 0.25; for LFKH, not above 0.25. For CETV the value was not above 0.25; for KQIR, not above 0.25.

On to MKIQ, for which the enrichment ratio was not above 0.25. The value for LKDF was not above 0.25; that for MIHV was not above 0.25; that for PVWK was not above 0.25. For LFYC the value was not above 0.25; for NGKR, not above 0.25. NEDN: the enrichment ratio was not above 0.25. For NYFF, the enrichment ratio was not above 0.25. SCNV: the enrichment ratio is not above 0.25. Take LSMR: the enrichment ratio was not above 0.25. In the case of VYWK, the enrichment ratio was not above 0.25.

Take HYWS: the enrichment ratio was not above 0.25. In the case of MQIN, the enrichment ratio is not above 0.25. The value for YHSD was not above 0.25; that for KYKK was not above 0.25. For MYRL the value was not above 0.25. For the variant DRKW, the enrichment ratio is not above 0.25. For the variant TIIS, the enrichment ratio is not above 0.25. For the variant FTCE, the enrichment ratio was not above 0.25. Consider QQQL, for which the enrichment ratio is not above 0.25. The value for HMNH was not above 0.25; that for KWFI was not above 0.25; that for PHRS was not above 0.25. The value for LQIE was not above 0.25; that for KLPC was not above 0.25. For VEKF the value was not above 0.25; for LPTP, not above 0.25; for HPVK, not above 0.25.

For QIIP, the enrichment ratio is not above 0.25. On to MSLI, for which the enrichment ratio was 10.4.

Regarding HFKA, the enrichment ratio was not above 0.25. For YIRA the value was not above 0.25. For IKWN the value was not above 0.25; for VDCN, not above 0.25. The value for YCWD was not above 0.25. For TVRV, the enrichment ratio was not above 0.25.

As to QDSN, the enrichment ratio is not above 0.25.

With NDFK, the enrichment ratio is not above 0.25. The value for IYIQ was not above 0.25; that for INDG was not above 0.25. For QSKY the value was not above 0.25; for MFID, not above 0.25; for HMDT, not above 0.25. Turning to LTRS, the enrichment ratio was not above 0.25. For NSQC the value was not above 0.25; for CLPP, not above 0.25; for GEMI, 84. Regarding RNEV, the enrichment ratio was not above 0.25. In the case of FGMD, the enrichment ratio is not above 0.25.

As to LGPS, the enrichment ratio is not above 0.25. On to QESK, for which the enrichment ratio was not above 0.25. In the case of FVEF, the enrichment ratio was not above 0.25.

Consider LMGY, for which the enrichment ratio is not above 0.25. In the case of GYGS, the enrichment ratio was not above 0.25.

With DHYS, the enrichment ratio was not above 0.25.

WHEW: the enrichment ratio was not above 0.25. In the case of GGPG, the enrichment ratio was not above 0.25. The value for ACKS was not above 0.25. For PWAI the value was not above 0.25; for YLKV, not above 0.25; for YFLA, not above 0.25.

Regarding VNVM, the enrichment ratio was determined as 5.74. For QMSG the value was 6.53. Regarding AFLR, the enrichment ratio was determined as 2.59. Take MEWE: the enrichment ratio is not above 0.25. On to YTQR, for which the enrichment ratio is not above 0.25. For LYRF the value was not above 0.25; for ILEH, not above 0.25; for DQHF, not above 0.25. The value for LRFR was not above 0.25; that for PCDC was not above 0.25. The value for STAH was 8.44. For WQEP, the enrichment ratio was not above 0.25.

Take DMRD: the enrichment ratio was not above 0.25. The value for RDVV was not above 0.25.

Take HRVY: the enrichment ratio is not above 0.25.

KACC: the enrichment ratio was not above 0.25.

Turning to EMNR, the enrichment ratio was not above 0.25. For SQRD the value was not above 0.25. On to MSGC, for which the enrichment ratio was found to be 7. With VGWR, the enrichment ratio was not above 0.25. Consider YFWC, for which the enrichment ratio was not above 0.25.

As to PQFE, the enrichment ratio was not above 0.25. For the variant YMHY, the enrichment ratio was not above 0.25.

For the variant MGKG, the enrichment ratio was not above 0.25. Consider DTSK, for which the enrichment ratio was not above 0.25.

Take SWVA: the enrichment ratio came out at 1.07. The value for NMWD was not above 0.25. With VYRH, the enrichment ratio was not above 0.25.

In the case of NWWC, the enrichment ratio was not above 0.25. Take MIRL: the enrichment ratio is not above 0.25. Regarding TPYQ, the enrichment ratio is 0.956. The value for TAAY was 15.7; that for HIQR was not above 0.25; that for SADW was not above 0.25. For IHGA, the enrichment ratio was not above 0.25. As for VMRC, the enrichment ratio was not above 0.25.

Regarding NGCY, the enrichment ratio is not above 0.25. For QMMF, the enrichment ratio was not above 0.25. For ADSM the value was not above 0.25; for VSAK, not above 0.25. For SMTQ the value was 8.61; for RTNM, not above 0.25; for QCNV, not above 0.25. The value for QNNL was not above 0.25; that for EIHR was not above 0.25. Regarding CSPL, the enrichment ratio was not above 0.25.

KQSF: the enrichment ratio was not above 0.25.

DHWY: the enrichment ratio was not above 0.25. For the variant VYCK, the enrichment ratio was not above 0.25. The value for DDAG was not above 0.25; that for ELWL was not above 0.25.

Turning to SDSW, the enrichment ratio was not above 0.25. For GNMH the value was 1.54.

As to WYTQ, the enrichment ratio was not above 0.25. For LMIP the value was not above 0.25; for KPAA, not above 0.25.

On to PGPR, for which the enrichment ratio is not above 0.25. The value for YTNC was not above 0.25; that for TSFT was 1.52; that for SQMN was 25.3. For FWNT the value was not above 0.25; for NEYF, not above 0.25.

Consider VWQE, for which the enrichment ratio is not above 0.25.

Values taken from a collection of fitness landscapes (doi:10.1126/science.1257360).
